Assay results reported in the DeepSol protein solubility set.

Assay: soluble on expression in E. coli; label from the status in PepcDB or PDB records

GAGGHKNLPAKGDLHIPVFENVNVRFSPDTYPDNYNEADGTGVYHLVNGRIILKKITLPEYKRNVSVSLKVTLASNGDRWDKSGSCFVLPKSSAINLLTIARDGMKFPSVDSLKLEKMVGIVPGKDYLPTVELMRFMTPFGIGHYSNNNDSLSSKRRPVYIPKWESNVTWQQDITDLYPLLEGEAYVGIYIDTWTSEGYLVNADIDVKESRLACDVLPKRHVEPLMNTVYYMGQSYPDIFARRDVSTDFTVPKGAKNIRLKYIVTGHGGHSGGDEFVQKRNIISVDGKEVLNFIPWRDDCASFRRFNPATGVWLIKRLASYIGEKGYTEKEVEEPLASSDLSRSNWCPGSDVVPEEAVIGTLAPGKHTFTVSIPEAQAVDGNKLNHWLVSAYLVWEE
soluble on expression in E. coli: soluble

MAFAPPLPIRRRKVLIPRPRSRFLLVTCPKCGNRQVVFSHSTFRARCLNCGEVLVEPTGGKARILGKIERIYGLEHHHHHH
soluble on expression in E. coli: not soluble

MRMKIAELSLFQHDLPVKDGPYTMSYGEISALDTTLVKLVTDTGIVGWGETCPLGPNYAEAHAEGARAALGAMAQALIGTEVLPLAAHRAMDGALLGHGYAKAAVDMAVYDALGKSLGLRVAELLGGAVTELVPSYYAIGIETPEEAGRIAAERRAEGYPRVQLKVGGRAPEVDVASIRKVWEAIKGSGMRLAIDANRGWTTRDAIGVSQACADIPLVMEQPCASNDEMRALRGMLRHPLYMDETSFDVSTVIGAAGTGMVDGFGFKLTRLGGLQRMATARDICAARRLPHSCDDAWGGDILAAACTHLGATVEPSLLEGVWIAAPYIDGHYDDAAGIEIVGGHIALPAGPGLGIVPDEARFGAPVLVV
soluble on expression in E. coli: soluble

MGKIMKPGKVVLVLRGKYAGRKAVVVKQQDEGVSDRTYPHAIIAGIDRYPLKVTKDMGKKKIEKRNKLKPFLKVVSYTHLLPTRYSVDVAFDKTNINKEALKAPSKKRKALVEVKSKFEERYKTGKNKWFFTKLRF
soluble on expression in E. coli: not soluble

MVDIAFELRKVIDSGKYTLGYRKTVQSLKMGGSKLIIIARNTRPDRKEDLEYYARLSGTPVYEFEGTNVELGTAVGKPHTVSVVSILDAGESRILALGGKE
soluble on expression in E. coli: soluble

MADEDDYQDMDNDDFVDDNEMEDVIEEDPQRPDNEDEDDDNVDENFELFDQGKAVPTSEHVTTPFMTKYERARVLGTRALQIAMGAPVMVELEGETDPLEIARKELKQRRIPIIVRRYLPDGSYEDWPTDQLQLADW
soluble on expression in E. coli: soluble

MGIDINHKYDRKVRRTEPKSQDVYLRLLVKLYRFLQRRTNKKFNRIILKRLFMSKINRPPLSLQRIARFFKAANQPESTIVVVGTVTDDARLLVVPKLTVCALHVTQTARERILKAGGEVLTFDQLALRSPTGKNTLLLQGRRTARTACKHFGKAPGVPHSHTRPYVRSKGRKFERARGRRSSCGYKKLEHHHHHH
soluble on expression in E. coli: soluble
